# From PubChem BioAssay (NCATS)
# Several values for one entry are separate records, joined by “and”; a condition that tells them apart may be missing. Equal values may be shown once. Inconclusive results, whose numbers are uncertain, are shown with a selection of clear calls. For some assays here: Potencies of inconclusive entries are left out as doubtful fits. Activity calls are given as the source filed them. Calls come from the whole dose curve; as a rule, active = well fitted curve in the direction sought with a large enough effect; inconclusive = small, poorly fitted or top-dose-only effect, or another doubt; inactive = no such curve, though single readings can be large; an effect the other way counts as inactive or inconclusive.
# Assays:
# [1] = qHTS Screen of the MIPE 4.0 Collection Against Ewings Sarcoma (RDES) (AID 1259252); note: nearly all actives have a fitted effect of over 35% in size; note: potency is the fitted concentration of half-maximal effect;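 for viability (percent of control): 100% = DMSO-treated cells and 0% = medium-only wells without cells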
# Procedure, shortened: (§1)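 Measured: ATP luminescence (CellTiter-Glo) 10 min after reagent addition, following 48 h drug treatment. Relative luciferase units converted to percent activity, with no-cell wells as full and DMSO wells as zero inhibition.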
# [2] = qHTS Screen of the MIPE 4.0 Collection Against Ewings Sarcoma (EW8) (AID 1259255); note: nearly all actives have a fitted effect of over 35% in size; note: potency is the fitted concentration of half-maximal effect;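 for viability: 100% = DMSO-treated cells and 0% = medium-only wells without cells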
# Procedure, shortened: as §1
# [3] = qHTS Screen of the MIPE 4.0 Collection Against Ewings Sarcoma (TC32) (AID 1259256); note: nearly all actives have a fitted effect of over 45% in size; note: potency is the fitted concentration of half-maximal effect;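 for viability (percent of control): 100% = DMSO-treated cells and 0% = medium-only wells without cells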
# Procedure, shortened: as §1
# [4] = P-glycoprotein substrates identified in KB-8-5-11 adenocarcinoma cell line, qHTS therapeutic library screen (AID 1346987); note: nearly all actives have a fitted effect of over 65% in size; note: potency is the fitted concentration of half-maximal effect
# Procedure, shortened: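 Steps: plate 500 KB-8-5-11 cells/well in DMEM + 10% FCS (colchicine removed); pin compounds in dose-response; incubate 72 h, 37 degree C, 5% CO2; add CellTiter-Glo, 5 min; read luminescence.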
# [5] = qHTS Assay for Identifying Gametocytocidal Compounds (AID 743244); note: potency is the fitted concentration of half-maximal effect;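 for max response: % is set by controls: 0 for no effect and ±100 for the full control effect; actives lower the fluorescent signal which means gametocytes are killed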; conditions: P. falciparum 3D7 stage III-V gametocytes, alamarBlue, 72 h; max response: active compounds read low
# Procedure, shortened: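 3D7 gametocytes, stages III–V, 20,000/well; cpd 72 h, 37 °C/5% CO2; + alamarBlue 24 h; fluor. Ex 525/Em 598.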
# [6] = Identifying Small Molecule Inhibitors of Pancreatic Cancer Stem Cells (A2780, Spheroid) (AID 1259357); conditions: Potency: A2780 spheroid viability; viability (percent of control): at 46.1 µM (top of the series);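 note: compound exposure lasted 48 h before the ATP luminescence read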; note: potency is the fitted concentration of half-maximal effect;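 for viability (percent of control): 100% = DMSO treated cells and 0% = wells without cells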
# Procedure, shortened: (§2)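 Monolayer and spheroid cultures are compared. Spheroids form over 14 days in stem cell medium on hydrogel-coated low-attachment plates, then are exposed to compound for 48 h before CellTiter-Glo luminescence.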
# [7] = Identifying Small Molecule Inhibitors of Pancreatic Cancer Stem Cells (Panc1, Adherent) (AID 1259362); conditions: Potency: viability; viability, % of control: at 46.1 µM (top of the series); note: potency is the fitted concentration of half-maximal effect;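 for viability, % of control: compound exposure lasted 48 h before the viability read; plate controls were DMSO-treated cells for no effect and cell-free media wells for full effect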
# Procedure, shortened: (§3)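 After a 4 h attachment period, compounds were pinned into wells and cultures held 48 h under standard incubator conditions. Viability was then measured as CellTiter-Glo luminescence following 10 min at room temperature.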
# [8] = qHTS assay to identify small molecule inhibitors of chordoma cells - UCH-1 (AID 1259355); note: nearly all actives have a fitted effect of over 55% in size; note: potency is the fitted concentration of half-maximal effect
# Procedure, shortened: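 Luminescent ATP read-out (CellTiter-Glo, 30min at room temperature) measured viability of UCH-1 cells exposed for 48hr to test drugs at 15 concentrations, co-dosed with a five-agent combination of auranofin, camptothecin, doxorubicin, rubitecan and topotecan.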
# [9] = Identifying Small Molecule Inhibitors of Pancreatic Cancer Stem Cells (Panc1, Spheroid) (AID 1259359); conditions: Panc1 spheroid cancer stem cell viability; viability, % of control: at 46.1 µM (top of the series);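 note: compound exposure lasted 48 h before reading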; note: potency is the fitted concentration of half-maximal effect
# Procedure, shortened: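 Adherent (2D) versus sphere (3D) formats; spheres generated 14 d in SCM beforehand. Compound transferred by pin tool after 4 h, 48 h incubation, CellTiter-Glo endpoint.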
# [10] = Identifying Small Molecule Inhibitors of Pancreatic Cancer Stem Cells (SN12C, Spheroid) (AID 1259360); conditions: Potency: SN12C spheroid viability; note: potency is the fitted concentration of half-maximal effect
# Procedure, shortened: as §2
# [11] = Identifying Small Molecule Inhibitors of Pancreatic Cancer Stem Cells (A278, Adherent) (AID 1259361); conditions: viability (% of control): at 46.1 µM (top of the series);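 note: viability read after 48 h compound exposure; nearly all actives have a fitted effect of over 35% in size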;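 for viability (% of control): 100% = DMSO-treated cells and 0% = cell-free media-only wells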
# Procedure, shortened: as §3
# [12] = P-glycoprotein substrates identified in KB-3-1 adenocarcinoma cell line, qHTS therapeutic library screen (AID 1346986);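 note: potency is the fitted concentration of half-maximal effect; potency is for cytotoxicity meaning loss of cell viability; nearly all actives have a fitted effect of over 60% in size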
# Procedure, shortened: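 Resistance attributable to P-gp was assessed by comparing AC50 in KB-8-5-11 with parental KB-3-1 and by tariquidar reversal. Cells were exposed 72 h and viability read by CellTiter-Glo.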
# [13] = qHTS assay for cell viability of HEK293 cells (AID 743288); conditions: ATP luminescence (CellTiter-Glo), 18 h; max response: active compounds read low; note: potency is the fitted concentration of half-maximal effect; nearly all actives have a fitted effect of over 50% in size
# Procedure, shortened: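 Parental HEK293 cells were seeded at 2,000 cells/well, rested at least 5 h at 37 C, then exposed to compounds in DMSO for 18 h at 37 C. Viability was read as ATP-dependent luciferase luminescence after 30 min at room temperature.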
# Tags give direction and shape of the fitted curve.
smiles,measurement,setting,value
CN(C)S(=O)(=O)c1ccc2c(c1)C(=Cc1cc3c([nH]1)CCCC3)C(=O)N2,Potency,[1],"inconclusive [inhibitor, full curve, poor fit]"
same,Potency,[2],active: 8.33 µM
same,Potency,[3],active: 3.72 µM
same,Potency,[4],"inconclusive [inhibitor, full curve]"
CCOC(=O)C(C)(C)Oc1ccc(Cl)cc1,max response,[5],inactive: 9.62% and inactive: 0.495%
same,Potency,[1],inactive
same,Potency,[2],"inconclusive [inhibitor, single point]"
same,Potency,[3],inactive
same,Potency,[4],inactive
Cn1c2cc(S(C)=O)sc2c2cnn(Cc3cccc(N)c3)c(=O)c21 (configuration not stated),Potency,[1],inactive
same,Potency,[2],inactive
same,Potency,[6],"inconclusive [rising, full curve, poor fit]"
same,Potency,[7],"inconclusive [rising, full curve, poor fit]"
same,Potency,[4],inactive
COc1ccc(C(=O)CC(=O)c2ccc(C(C)(C)C)cc2)cc1,Potency,[1],active: 1.05 µM
same,Potency,[2],active: 2.09 µM
same,Potency,[8],"inconclusive [cytotoxic, single point]"
same,Potency,[4],inactive
CC(C)(C#N)c1cc(Cn2cncn2)cc(C(C)(C)C#N)c1,Potency,[1],inactive
same,Potency,[2],inactive
same,Potency,[8],inactive
COc1cc2ncnc(-n3nc(-c4ccccn4)nc3N)c2cc1OC,Potency,[5],"inconclusive [inhibitor, single point]"
same,Potency,[1],"inconclusive [inhibitor, full curve]"
same,Potency,[2],"inconclusive [inhibitor, partial curve]"
same,Potency,[6],inactive
same,Potency,[9],"inconclusive [cytotoxic, full curve, poor fit]"
same,Potency,[10],"inconclusive [cytotoxic, partial curve, poor fit]"
same,IC50 (viability decrease),[11],active: 3.32 µM
same,Potency,[7],active: 18.7 µM
same,Potency,[12],"inconclusive [inhibitor, partial curve]"
CC(COc1ccccc1)N(CCCl)Cc1ccccc1 (configuration not stated),Potency,[13],"inconclusive [cytotoxic, partial curve, poor fit]"
same,Potency,[1],inactive
same,Potency,[2],inactive
same,Potency,[3],inactive
O=C(C=Cc1cccnc1)NCCCCC1CCN(C(=O)c2ccccc2)CC1,Potency,[1],active: 0.0042 µM
same,Potency,[2],active: 0.0074 µM
same,Potency,[6],inactive
same,Potency,[9],"inconclusive [rising, full curve, poor fit]"
same,IC50 (viability decrease),[11],inactive
same,Potency,[7],inactive
CC(C)C[C@H](NC(=O)[C@H](CCc1ccccc1)NC(=O)CN1CCOCC1)C(=O)N[C@@H](Cc1ccccc1)C(=O)N[C@@H](CC(C)C)C(=O)[C@@]1(C)CO1,Potency,[1],active: 0.0187 µM
same,Potency,[2],active: 0.0132 µM
same,Potency,[6],"inconclusive [rising, full curve, poor fit]"
same,Potency,[10],active: 0.0372 µM
same,Potency,[7],active: 0.0264 µM
same,Potency,[4],"inconclusive [inhibitor, full curve]"
CC=C(C)C(=O)O[C@H]1C(C)=C[C@]23C(=O)[C@@H](C=C(CO)[C@@H](O)[C@]12O)[C@H]1[C@@H](C[C@H]3C)C1(C)C,Potency,[1],"inconclusive [inhibitor, full curve]"
same,Potency,[2],"inconclusive [inhibitor, partial curve, poor fit]"
same,Potency,[3],"inconclusive [inhibitor, partial curve, poor fit]"
same,Potency,[4],"inconclusive [inhibitor, partial curve]"
CC[C@@H]([C@H](C)O)n1ncn(-c2ccc(N3CCN(c4ccc(OCC5CO[C@@](Cn6cncn6)(c6ccc(F)cc6F)C5)cc4)CC3)cc2)c1=O (some centres not stated),Potency,[1],"inconclusive [inhibitor, partial curve, poor fit]"
same,Potency,[2],inactive
same,Potency,[3],"inconclusive [inhibitor, single point]"
same,Potency,[4],"inconclusive [inhibitor, partial curve]"
CC[C@H](CO)Nc1nc(NCc2ccccc2)c2ncn(C(C)C)c2n1,Potency,[1],active: 16.6 µM
same,Potency,[2],active: 29.6 µM
same,Potency,[6],active: 20.9 µM
same,"viability, % of control",[9],inconclusive: 111%
same,Potency,[10],"inconclusive [cytotoxic, single point]"
same,"viability, % of control",[7],inconclusive: 129%
same,Potency,[12],"inconclusive [inhibitor, single point]"
same,Potency,[4],"inconclusive [inhibitor, single point]"
